In PubChem BioAssay AID485344 (National Center for Advancing Translational Sciences (NCATS), 2010) one finds inhibition data, which are given here for 95 molecules.

One may read the inhibition as the drop in the measured response relative to a control, in per cent.

The campaign covered roughly 340,000 compounds. About 6,900 (2%) were called active. No stated cut-off is given here; in the data, active means inhibition above about 30%; inactive means below that, where a call was filed. This is a selection; strong and weak results do not stand in their true shares. The source gives no active or inactive call for entries shown without one.

Chain of UniProt P14416 (P14416 whole entry, looked up): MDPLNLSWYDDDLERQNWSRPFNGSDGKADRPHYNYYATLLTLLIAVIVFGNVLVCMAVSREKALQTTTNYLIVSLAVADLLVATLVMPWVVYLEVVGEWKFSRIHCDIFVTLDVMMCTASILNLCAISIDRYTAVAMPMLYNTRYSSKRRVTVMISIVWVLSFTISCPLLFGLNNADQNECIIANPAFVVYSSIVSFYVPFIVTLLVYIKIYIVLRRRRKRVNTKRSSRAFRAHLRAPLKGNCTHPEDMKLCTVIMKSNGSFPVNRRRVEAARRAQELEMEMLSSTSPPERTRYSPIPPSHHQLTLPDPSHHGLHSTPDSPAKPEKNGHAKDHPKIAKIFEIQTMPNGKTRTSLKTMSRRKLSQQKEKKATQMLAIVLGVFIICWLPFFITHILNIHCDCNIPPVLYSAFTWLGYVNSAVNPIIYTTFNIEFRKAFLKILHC

The experiment concerns the target D(2) dopamine receptor (Homo sapiens) (UniProt P14416). As to the kind of experiment: HTS Assay for Allosteric Antagonists of the Human D2 Dopamine Receptor: Primary Screen for Antagonists. Further: 0% is about no effect. Particulars: HEK293 TREx D2 cells, calcium flux, dopamine EC80; at 10 µM; stronger effect = higher value. The gist of the method:
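HEK293 T-REx D2 cells, tet-induced, calcium dye no-wash. Cpd pintool add, 180 s kinetic, then EC80 DA, 180 s kinetic. Ca flux read.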
(In general: Calcium assays in cells follow changes in intracellular calcium, usually with a dye or a luminescent sensor.)
Turning to `Nc1c(C(=O)Nc2cccc(F)c2)nnn1-c1cccc(C(F)(F)F)c1`, the inhibition was -17.3%.

Regarding `Cc1cc(C)cc(NC(=O)c2sc3nc4n(c(=O)c3c2C)N=C(c2ccccc2)CS4)c1`, the inhibition is 8.91%.

In the case of `CCc1cccc(NC(=O)Cn2c(=O)n(CCC(=O)NCc3ccccc3Cl)c(=O)c3sccc32)c1`, the inhibition is -21.5%. For `CCOC(=O)c1cc(C)n(CC2CCC(C(=O)Nc3cccc(Cl)c3)CC2)c1C` (stereo not given), the inhibition was -21.4%. Consider `CCN(CC)c1ccc(NC(=O)CN2CCN(c3ccccc3OC)CC2)cc1`, for which the inhibition was -0.514%. Turning to `Oc1c(C(c2ccccc2)N2CCOCC2)sc2nc(-c3ccco3)nn12` (stereo not given), the inhibition was -15.8%. Turning to `Cc1cccc(N2C(=O)CSC23C(=O)N(CC(=O)Nc2cccc(Cl)c2)c2ccccc23)c1` (stereo not given), the inhibition is -1.17%.

Turning to `COc1ccccc1-c1nn(-c2ccccc2)cc1C(=O)NCC(c1ccco1)N1CCCC1` (stereo not given), the inhibition is active: 40.4%.

Take `COc1ccccc1CCN1COc2c(cc3c(C)c(C)c(=O)oc3c2C)C1`: the inhibition is 0.884%. Take `O=C(NC1CCCCCC1)C1c2ccccc2C(=O)N1Cc1ccc(F)cc1` (stereo not given): the inhibition turned out to be 7.61%. As to `Cc1ccccc1OCCCCN1CCCCC1`, the inhibition is active: 49.5%. For `COc1ccc(CNC(=O)CN2C(=O)CSc3ccc(S(=O)(=O)N(C)C)cc32)cc1`, the inhibition was 2.59%. Turning to `CCOc1ccc(N2CC(c3nc4ccccc4n3CCCCOc3ccc(OC)cc3)CC2=O)cc1` (stereo not given), the inhibition turned out to be 1.43%.

`Cc1cc(=O)n2nc(N3CCC(C(=O)Nc4c(C)cccc4C)CC3)sc2n1`: the inhibition is -10.2%. For `N#Cc1cnc(SCC(=O)Nc2ccccc2C(F)(F)F)nc1N`, the inhibition was active: 32%. `COc1ccc(C2=C(C)C(=O)N(Cc3ccc(C(=O)NC(C)c4ccccc4)cc3)S2(=O)=O)cc1` (stereo not given): the inhibition is -15.4%. As for `CCOc1ccccc1NC(=O)Cn1ncc2c([nH]c3ccccc32)c1=O`, the figure is 18.5%.

In the case of `Cc1ccccc1OCC(=O)Nc1nnc(S(=O)(=O)N2CCCC2)s1`, the inhibition was -11.6%. As for `COc1ccc(OC)c(CNC(=O)c2ccc3nc(C(C)C)oc3c2)c1`, the inhibition was determined as 17.4%. Turning to `CCCc1ccc(S(=O)(=O)N2CCC(c3nnc(-c4cccc(C)c4)o3)CC2)cc1`, the inhibition is 6.07%.

For the molecule `COc1ccc(Cl)cc1C(=O)Nc1ccc2nc(Nc3cccc(Cl)c3)cc(C)c2c1`, the inhibition was -20.4%. On to `CCOc1ccc(NC(=O)CN2C(=O)C(c3ccc(Cl)cc3)=NC2(C)C)cc1`, for which the inhibition amounted to 0.367%. With `CCC(=O)N1CCc2cc(Br)cc(S(=O)(=O)N3CCCC(C(=O)Nc4cc(C)ccc4OC)C3)c21` (stereo not given), the inhibition is -7.74%. As for `O=C(NCc1ccc(Cl)cc1)C1=Cc2cc(Br)ccc2OC1`, the inhibition was -16.4%. Turning to `CCn1c(=O)cc(OCC(=O)N(C)c2ccc(OC)cc2)c2ccccc21`, the inhibition was -5.05%. In the case of `O=C(NCCCN1CCc2ccccc2C1)Nc1ccc(Br)cc1`, the inhibition was active: 30.7%. For the molecule `CC(C)c1ccc(C2=CC(c3cccc(Cl)c3)n3c(nc4ccccc43)N2)cc1` (stereo not given), the inhibition is 3.09%.

On to `Cc1ccc(Cl)cc1N1CCN(C(=O)c2cc3ccc4cccnc4c3[nH]2)CC1`, for which the inhibition was determined as 1.61%.

As to `COc1ccc(CCNC2CCC(c3ccccc3)CC2)cc1` (stereo not given), the inhibition is active: 77.7%.

Turning to `COc1ccc(C)cc1NC(=O)c1c2c(nc3ccccc13)C(=O)N(C1CCCCC1)C2`, the inhibition stood at 13.7%. In the case of `CCOc1ccc(Br)cc1C1C(C(=O)OC)=C(C)NC2=C1C(=O)c1ccccc12` (stereo not given), the inhibition worked out at 0.882%. As for `CCN(C(=O)CSc1ncc2c(n1)-c1cc(Cl)ccc1N(Cc1ccccc1)S2(=O)=O)c1cccc(C)c1`, the inhibition was found to be 3.52%. Regarding `Cc1ccc(-c2cc3ncc(C(=O)c4cc(Cl)c(C)cc4O)cn3n2)cc1`, the inhibition amounted to 2.64%. As to `Cc1ccc(Cl)cc1NC(=O)C(Cc1ccccc1)NS(=O)(=O)c1cccc2nsnc12` (stereo not given), the inhibition was 12.3%. Consider `CCc1c(C)sc2c1CCN(C(=O)Nc1ccccc1C(=O)OC)C2c1ccc(OC)cc1` (stereo not given), for which the inhibition was 3.69%. Turning to `COc1ccc(OC)c(C2Nc3c(C)cc(C)cc3-c3cc(C)nn32)c1` (stereo not given), the inhibition amounted to 0.538%. As for `Cc1ccc(NS(=O)(=O)c2ccc3c(c2)CC(=O)N3)cc1Cl`, the figure is 5.85%; as for `Cc1ccc(C)c(S(=O)(=O)c2nnn3c2nc(Nc2ccc(C)c(C)c2)c2ccccc23)c1`, -18.2%; as for `Cc1ccc(CCNC(=O)c2c[nH]c3ccc(S(=O)(=O)Nc4ccc(C)cc4C)cc3c2=O)cc1`, 11.5%.

With `COc1cccc(C(=O)NCC(c2ccc(N(C)C)cc2)N2CCc3ccccc32)c1` (stereo not given), the inhibition was -5.92%. Under `Cc1ccc(-n2nc3c([n+]2[O-])CCc2nonc2-3)cc1` stands active: 52.9%; under `CC(=O)c1cccc(Nc2nc(-c3cccc(C)c3)nc3ccccc23)c1`, 0.711%. Under `Cc1nn(-c2ccc(N3CCCCC3)nn2)c(C)c1CCC(=O)NCc1ccc(OC(C)C)cc1` stands -4.61%; under `Cc1ccc(NC(=O)Cn2cc(S(=O)(=O)N3CCCC3)c(S(=O)(=O)N3CCCC3)c2)cc1F`, -0.532%. Turning to `Cc1ccccc1C(=O)Nc1ccc(OCc2cc(=O)n3ccccc3n2)cc1`, the inhibition was 14.3%.

Turning to `S=C(Nc1ccc(Cl)c(Cl)c1)NC1CCN(Cc2ccccc2)CC1`, the inhibition is active: 45.2%. Under `COC(=O)CCNC(=O)NC(CCC(C)C)c1c(-n2cccc2)sc2c1CCN(C)C2` (stereo not given) stands 3.16%; under `CCN1c2ccccc2-c2nc(SCC(=O)NCc3ccccc3)ncc2S1(=O)=O`, -3.36%.

Turning to `Cc1ccccc1N1CCN(Cc2c[nH]c3ccccc23)CC1`, the inhibition was active: 39.9%. `COc1ccccc1-c1cc2nc(C)c(CCC(=O)O)c(C)n2n1`: the inhibition amounted to 0.0241%. For the molecule `COc1ccccc1NC(=O)Cn1c(=O)n(CCC(=O)NCC2CCCO2)c(=O)c2cc(OC)c(OC)cc21` (stereo not given), the inhibition came out at 13.9%.

For `Cc1ccc2nc(-c3ccc(O)cc3)c(Nc3ccc(Cl)cc3)n2c1`, the inhibition stood at 14.9%.

As to `CCC(=O)N1CCc2cc(S(=O)(=O)NCCC(=O)Nc3cc(C)ccc3OC)ccc21`, the inhibition is 6.17%.

As to `Cc1ccc(-c2nn(-c3ccc(F)cc3)c3c2cnc2cc(F)c(F)cc23)cc1`, the inhibition was found to be 1.08%. With `CCCN(CCC)C(=O)Cn1c(=O)n(-c2ccc(Cl)cc2)c(=O)c2c3c(sc21)CCCCC3`, the inhibition stood at 5.73%.

For `COc1cc(NC(=O)c2cc3c(s2)-c2ccccc2OC3)cc(OC)c1OC`, the inhibition is -18.2%. Consider `CCCc1cc(=O)[nH]c(SCC(=O)N2CCN(c3ccccc3OC)CC2)n1`, for which the inhibition was -6.95%. For the molecule `CC(=O)c1ccc(Nc2nc3c(S(=O)(=O)c4ccccc4)nnn3c3ccc(Cl)cc23)cc1`, the inhibition was -2.72%. Consider `Cc1oc(-c2cccs2)nc1CN1CCC(c2ccccc2)CC1`, for which the inhibition is active: 83.3%. `Cc1ccc(NC(=O)Cn2c(=O)c3ccccc3n3nncc23)cc1`: the inhibition is -17.6%.

Consider `COc1cccc(C(=O)N(c2ccc(OC)cc2OC)C2C=CS(=O)(=O)C2)c1` (stereo not given), for which the inhibition is active: 30.5%. As for `Cc1ccc(NC(=O)c2cc([N+](=O)[O-])ccc2NCc2cccnc2)cc1`, the inhibition was active: 33.3%.

For `O=C(Nc1cccc(F)c1)Nc1ccccn1`, the inhibition was active: 87%. Take `Cc1cc(C)nc(/N=C(\N)Nc2ccc(OCCC(C)C)cc2)n1`: the inhibition was active: 51.9%.

For the molecule `Cc1ccc(C)c(N2CCN(C(=O)CCc3nnc4n(CC(C)C)c(=O)c5ccccc5n34)CC2)c1`, the inhibition stood at 2.43%. On to `CCn1cc(C(=O)N2CCN(c3cccc(Cl)c3)CC2)c2cc(OC)c(OC)cc2c1=O`, for which the inhibition amounted to 3.75%. In the case of `CCOc1ccc(CNC(=O)c2cnc3sc(N4CCOCC4)nn3c2=O)cc1`, the inhibition is -8.41%. With `CCS(=O)(=O)N1CCc2cc(C(=O)Nc3ccc(C(=O)OC)cc3)ccc21`, the inhibition is -3.5%. Under `Cc1ccc(CN2CCc3nc(Nc4ccc5c(c4)OCCO5)ncc3C2)cc1` stands 0.176%; under `CC1=C(c2ccc(C(C)C)cc2)S(=O)(=O)NC1=NCCCN1CCN(c2ccccc2F)CC1`, 11.1%; under `Cc1ccc(-n2c3c(cc(-c4nc(-c5ccc(Cl)cc5)cs4)c2=O)C(=O)CC(C)(C)C3)cc1C`, 13.7%.

For `C#CCSc1nc(-c2ccccc2)cc(-c2ccccc2)c1C#N`, the inhibition was -9.08%. Turning to `CN(C)CCC=C1c2ccccc2CCc2ccccc21`, the inhibition was active: 63.6%. For `O=S(=O)(c1ccc(-c2cc(C(F)(F)F)on2)s1)N1CCN(c2ccc(F)cc2)CC1`, the inhibition was found to be 7.57%. As for `COc1cc(NS(=O)(=O)c2cc3c(cc2C)N(C)CCO3)cc(OC)c1OC`, the figure is 9.3%; as for `COc1ccc(NC(=O)C2CCCN(c3ncnc4c3nc3n4CCCCC3)C2)c(OC)c1` (stereo not given), -2.08%. `Cc1cc(Br)ccc1NC(=O)Cn1cc(S(=O)(=O)N2CCN(c3ccccc3F)CC2)c2ccccc2c1=O`: the inhibition is 5.65%. For `COc1ccc(NC(=O)c2ccc3c(SCC(=O)O)c4c(nc3c2)CCCC4)c(OC)c1`, the inhibition worked out at 9.33%. Turning to `CCc1ccc(NC(=O)CSc2ccc(-c3ccccn3)nn2)cc1`, the inhibition was -3.23%. On to `O=C(NCCCN1CCN(c2ccc(F)cc2)CC1)c1cnn(-c2ccc(F)cc2)c1-n1cccc1`, for which the inhibition amounted to 1.57%. On to `Cc1cccc(-c2nc3c4ccccc4n(Cc4cccc(Cl)c4)c(=O)n3n2)c1`, for which the inhibition is -18.6%. For `O=C(CN1C(=O)COc2ccc(S(=O)(=O)N3CCOCC3)cc21)N1CCN(c2cccc(Cl)c2)CC1`, the inhibition is 0.449%. As for `COc1cccc(C(=O)Nc2cccc(-c3cn4ccsc4n3)c2)c1OC`, the figure is -1.62%.

`CCCCS(=O)(=O)CC(O)CSc1nc(-c2ccc(C)cc2)cc(-c2ccccc2)c1C#N` (stereo not given): the inhibition came out at 3.34%. On to `CCOC(=O)/C(C#N)=C/c1ccc(-c2ccc(Br)cc2)o1`, for which the inhibition stood at 2.34%. As to `O=C(Nc1ccc(F)cc1F)c1cc(-c2ccc(Cl)cc2)on1`, the inhibition came to 23%. Under `CCOC(=O)c1ccc(NC(=O)CCn2c(=O)c3cccn3c3cccnc32)cc1` stands 4.92%. As for `COc1ccc(-c2nnc(SCC(=O)Nc3cc(C)on3)o2)cc1`, the figure is active: 35.6%; as for `CCN(CC)C(=O)Cn1c(=O)n(-c2ccc(C)c(C)c2)c(=O)c2c3c(sc21)CCCCC3`, 13.7%. `CCc1cccc(NS(=O)(=O)c2ccc(-n3cccn3)cc2)c1`: the inhibition amounted to 10.4%.

Take `CCOc1cccc(C2c3[nH]c4ccccc4c3CCN2C(=O)CSCc2ccc(F)cc2)c1` (stereo not given): the inhibition was found to be 11.8%. As for `Cc1ccc2nc(COc3ccccc3NC(=O)c3ccccc3F)cc(=O)n2c1`, the inhibition is -5.26%.

With `Cc1ccc2c(c1)c(CC(=O)Nc1ccc(C)c(F)c1)c(C(=O)O)n2C`, the inhibition was -1.7%. Turning to `CCc1cccc(NC(=O)C2Cc3ccccc3N2C(=O)c2ccccc2)c1` (stereo not given), the inhibition is -11.5%. `NC(=O)Cn1c(=O)n(CCCCCC(=O)NCc2ccc(F)cc2)c(=O)c2sccc21`: the inhibition is -2.81%.
